Data on 44 sequences can be found in the supplement of paper PMC11417369.

± gives the standard deviation of the averaged measurements. The list shows a part of the results.

This experiment has as its system PfAP2-LT AP2 domain (GST-tagged). The experiment can be described thus: gcPBM binding intensity (ln(normalized median fluorescence intensity)); higher = stronger DNA binding. The essentials: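 An Agilent 4 × 180k array of primer-extended double-stranded 36-bp intergenic genomic probes, with negative controls, was incubated for 1 h with GST-tagged P. falciparum DNA-binding domains expressed in E. coli. Alexa488 anti-GST antibody detected bound protein, scanned at 488 nm. Binding intensity is the highest Masliner-normalised natural-log median intensity across replicate spots of either probe orientation.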
On to “CATACGTTCTAATATATACACACCTGGTATTAATTA [CACACA_site2221]”, for which the “gcPBM binding intensity (ln)” value came out at 8.88 ± 0.41. For “CTATAATGTTTCTTTCAACACACAAAAAATGAACAC [CACACA_site8438]” the value was 8.84 ± 0.45; for “ATTGCGTGATAATAATGTACAAAAAGTAATTTATAT [XGTACX_site8339]”, 8.86 ± 0.44.

For the sequence “TCATTCTAAATATAAACACACATAAATATATACATT [CACACA_site3354]”, the “gcPBM binding intensity (ln)” value came to 8.78 ± 0.37. For “AATATATAATTTTTAACACACAAAAAAAAAAAAAAT [CACACA_site3581]” the value was 8.87 ± 0.47; for “AAAAAAAAAAAAAAAACACACACATATAATATATTT [CACACA_site8369]”, 9.15 ± 0.33; for “GGTACGTATTTCAATGCATGTCCATGTACATATAAA [TGCATGCA_site208]”, 8.85 ± 0.29. In the case of “TTTTTATTTATATGTATACACACTTTAATTAAAAGT [CACACA_site2525]” it was 9 ± 0.54; in that of “TGTTATATATAAATTTGTACACATAAATATTTTTAC [XGTACX_site5873]”, 8.71 ± 0.5; in that of “AATAAAAAAAAATGCACACATATATATATATATATA [CACACA_site2421]”, 9.83 ± 0.35.

“CAGAATATATTCTATACATGCAATAGGAAATGTAGC [TGCATGCA_site110]”: the “gcPBM binding intensity (ln)” value is 8.96 ± 0.38. For “AAAAAAAAAAAAAAAAGTACAAAAATATATATGCAT [XGTACX_site8392]” the value was 8.65 ± 0.51. For “TATGCACAGAAACACACACACACAACCAAAAAATAA [CACACA_site5425]” the value was 9.9 ± 0.33; for “TTTTTATATATATGTATAAATATTTTTTCTATTTAT [XGTACX_negctrl_site606]”, 8.46 ± 0.49; for “AAATTTTCTTAAGGTTGTACTTTTTGAAAATAATCT [XGTACX_site4894]”, 8.29 ± 0.4. For “TGTAGTCTGGAGAAACGTACATAGTATCTGGTAGCT [XGTACX_site2538]” the value was 8.91 ± 0.42. For “AATGTGTAGGTAAGATAATTTTTGTTTTTTTATTTG [CACACA_negctrl_site424]”, the “gcPBM binding intensity (ln)” value amounted to 8.68 ± 0.43.

Regarding “ATATTTATAATATAGAGTACTTACTAAGTTATGGGT [XGTACX_site5405]”, the “gcPBM binding intensity (ln)” value is 8.68 ± 0.42. As for “TTAAACTTGAAACACACACACACACCCATATAAAAA [CACACA_site758]”, the “gcPBM binding intensity (ln)” value stood at 10.1 ± 0.064.

As for “AACTCACGAGGACACACACACATATATATATATATA [CACACA_site4711]”, the “gcPBM binding intensity (ln)” value worked out at 10.38 ± 0.035.

Turning to “TATAATATATCTGTAACACACAAAAGTTATATACTT [CACACA_site5578]”, the “gcPBM binding intensity (ln)” value came to 8.8 ± 0.4.

“TTTTTTTCTCTCTCTACACACAAGGTTTAATTTAAA [CACACA_site1690]”: the “gcPBM binding intensity (ln)” value was 8.73 ± 0.41. In the case of “ACATACATACATACATACATACATACATACATACAT [XGTACX_negctrl_site315]” it was 9.3 ± 0.27; in that of TCATAGGGGTAGAAGGTGCAATAAAAAAGAAGAAAA, 8.65 ± 0.75. For “GAATTTCAACAAAGTAGTACATTTTATAGTAATTGG [XGTACX_site2319]” the value was 8.57 ± 0.42; for “ATAAATATGTTCTGCACACAAATAAGTGTTTGAAGT [CACACA_site3892]”, 9.05 ± 0.33.

With “TAATGGAATAAAAATTGTACATATTTTTTTTTTTTT [XGTACX_site7669]”, the “gcPBM binding intensity (ln)” value stood at 8.45 ± 0.36. In the case of “AATAGGTGCCTTTTTTCACACACATGTCAACTAAAT [CACACA_site8846]” it was 9.34 ± 0.36. For “TTTGGTAAGCGTGTCGCATGTAGAACAAGTCTACAT [TGCATGCA_site577]” the value was 8.73 ± 0.35; for “ATGAAATTATTATATAAACACACATTTATTTTATTT [CACACA_site8597]”, 8.65 ± 0.49; for “ATTCTTTTTTTTTTCTTATATTCTAATCACCACCTT [XGTACX_negctrl_site179]”, 8.78 ± 0.64. For “CATATAAATAAACACACACACACATATATATATATA [CACACA_site5309]” the value was 10.06 ± 0.064; for “TATATATATATTTTTGGTACAGATATTTTCTTCTCT [XGTACX_site4432]”, 9.06 ± 0.4; for “AATATATATATATATTGTACACACATTTATGCATAT [XGTACX_site6856]”, 9.43 ± 0.28.

For the sequence “TTACAACCATAAAATGCATGTAAATGACAAAAAAAA [TGCATGCA_site944]”, the “gcPBM binding intensity (ln)” value turned out to be 8.79 ± 0.4.

As to “ATTAAAATGGAGTATTAATATGATATATATATATAT [GTGCAC_negctrl_site509]”, the “gcPBM binding intensity (ln)” value was 9.19 ± 0.25. In the case of “AGGAACATTTACGCCCCACACACCTACCAACAAAAA [CACACA_site3827]” it was 9.59 ± 0.23; in that of “TAAATACAGACATACACACATACACCCACATATATA [CACACA_site547]”, 9.76 ± 0.38; in that of “GTTAATTTAATTATATGTACGAAAAAATACGTTATA [XGTACX_site1306]”, 8.45 ± 0.41. In the case of “TTTTTATTTTTTTATTTCTTATCAAATAAAATATAT [XGTACX_negctrl_site537]” it was 8.29 ± 0.51.

Turning to “ACATAATATACTATTGTGCACATATATATATATATA [GTGCAC_site9761]”, the “gcPBM binding intensity (ln)” value came out at 9.72 ± 0.33. For “ACCCTTCAATTTAATTGTACAAGAAAAAAAAAAAAA [XGTACX_site2927]” the value was 8.39 ± 0.54; for “TGCTCAAACTTTACAAATGAACGAATATAAAAAAAG [CACACA_negctrl_site541]”, 8.54 ± 0.5; for “AAATAATCATAAAATAAACACACATATATAAATATA [CACACA_site7981]”, 8.89 ± 0.42.
